Test results as given in paper PMC10416611.
These are yes or no findings as the source states them, for the method shown. Binding seen in cells or lysates may run through a third protein. Some binding calls cover weakened binding; strength is not graded here. Sequences can lack the tags named with a protein.

Amino acid sequences for entries named in this document (tags omitted).
UniProt P22953: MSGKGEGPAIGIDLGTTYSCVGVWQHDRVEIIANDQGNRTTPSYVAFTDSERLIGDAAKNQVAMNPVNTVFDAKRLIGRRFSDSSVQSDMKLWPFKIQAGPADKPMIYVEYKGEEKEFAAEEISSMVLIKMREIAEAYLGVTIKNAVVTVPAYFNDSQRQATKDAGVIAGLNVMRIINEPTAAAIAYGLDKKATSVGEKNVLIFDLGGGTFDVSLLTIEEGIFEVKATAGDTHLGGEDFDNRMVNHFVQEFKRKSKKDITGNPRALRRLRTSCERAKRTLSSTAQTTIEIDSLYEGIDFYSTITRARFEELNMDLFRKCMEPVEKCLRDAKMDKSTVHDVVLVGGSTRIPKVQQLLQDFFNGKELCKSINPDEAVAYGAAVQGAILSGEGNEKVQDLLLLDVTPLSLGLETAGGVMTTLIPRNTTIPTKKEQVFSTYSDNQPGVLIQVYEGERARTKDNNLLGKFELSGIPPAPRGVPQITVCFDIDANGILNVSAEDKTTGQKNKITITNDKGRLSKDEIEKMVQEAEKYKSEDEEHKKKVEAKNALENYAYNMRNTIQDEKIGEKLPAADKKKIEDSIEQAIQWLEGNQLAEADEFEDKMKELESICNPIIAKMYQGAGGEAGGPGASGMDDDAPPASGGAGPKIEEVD

T1: AT-HOOK MOTIF NUCLEAR LOCALIZED 28 (AHL28), luciferase-half fusions for LCI (Arabidopsis thaliana) (UniProt Q9M9R4)
T1 sequence: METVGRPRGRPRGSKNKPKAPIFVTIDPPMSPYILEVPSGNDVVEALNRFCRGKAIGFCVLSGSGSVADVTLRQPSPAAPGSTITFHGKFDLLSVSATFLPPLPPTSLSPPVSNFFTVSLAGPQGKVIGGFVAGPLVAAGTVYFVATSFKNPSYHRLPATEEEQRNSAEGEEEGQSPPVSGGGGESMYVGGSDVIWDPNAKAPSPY

T2: AHL28, YFP-half fusions for BiFC (Arabidopsis thaliana) (UniProt Q9M9R4)
T2 sequence: T1 sequence

B1: AT-HOOK MOTIF NUCLEAR LOCALIZED 28 (AHL28), luciferase-half fusions for LCI (protein, UniProt Q9M9R4 1-206)
chain: T1 sequence
B2: RHD6-GFP (protein, UniProt Q9C707 1-298)
chain: MALVNDHPNETNYLSKQNSSSSEDLSSPGLDQPDAAYAGGGGGGGSASSSSTMNSDHQQHQGFVFYPSGEDHHNSLMDFNGSSFLNFDHHESFPPPAISCGGSSGGGGFSFLEGNNMSYGFTNWNHQHHMDIISPRSTETPQGQKDWLYSDSTVVTTGSRNESLSPKSAGNKRSHTGESTQPSKKLSSGVTGKTKPKPTTSPKDPQSLAAKNRRERISERLKILQELVPNGTKVDLVTMLEKAISYVKFLQVQVKVLATDEFWPAQGGKAPDISQVKDAIDAILSSSQRDRNSNLITN
B3: AHL19, luciferase-half fusions for LCI (protein, UniProt Q9SR17 1-315)
chain: MANPWWTGQVNLSGLETTPPGSSQLKKPDLHISMNMAMDSGHNNHHHHQEVDNNNNDDDRDNLSGDDHEPREGAVEAPTRRPRGRPAGSKNKPKPPIFVTRDSPNALKSHVMEIASGTDVIETLATFARRRQRGICILSGNGTVANVTLRQPSTAAVAAAPGGAAVLALQGRFEILSLTGSFLPGPAPPGSTGLTIYLAGGQGQVVGGSVVGPLMAAGPVMLIAATFSNATYERLPLEEEEAAERGGGGGSGGVVPGQLGGGGSPLSSGAGGGDGNQGLPVYNMPGNLVSNGGSGGGGQMSGQEAYGWAQARSGF
B4: ROOT HAIR …6 (RHD6), luciferase-half fusion for LCI (protein, UniProt Q9C707 1-298)
chain: B2 chain
B5: RHD6, nYFP fusion for BiFC (protein, UniProt Q9C707 1-298)
chain: B2 chain
B6: RHD6-LIKE1 (RSL1), luciferase-half fusion for LCI (protein, UniProt Q9FJ00 1-307)
chain: MSLINEHCNERNYISTPNSSEDLSSPQNCGLDEGASASSSSTINSDHQNNQGFVFYPSGETIEDHNSLMDFNASSFFTFDNHRSLISPVTNGGAFPVVDGNMSYSYDGWSHHQVDSISPRVIKTPNSFETTSSFGLTSNSMSKPATNHGNGDWLYSGSTIVNIGSRHESTSPKLAGNKRPFTGENTQLSKKPSSGTNGKIKPKATTSPKDPQSLAAKNRRERISERLKVLQELVPNGTKVDLVTMLEKAIGYVKFLQVQVKVLAADEFWPAQGGKAPDISQVKEAIDAILSSSQRDSNSTRETSIAE
B7: RHD6-LIKE2 (RSL2), luciferase-half fusion for LCI (protein, UniProt Q84WK0 1-352)
chain: MEAMGEWSNNLGGMYTYATEEADFMNQLLASYDHPGTGSSSGAAASGDHQGLYWNLGSHHNHLSLVSEAGSFCFSQESSSYSAGNSGYYTVVPPTVEENQNETMDFGMEDVTINTNSYLVGEETSECDVEKYSSGKTLMPLETVVENHDDEESLLQSEISVTTTKSLTGSKKRSRATSTDKNKRARVNKRAQKNVEMSGDNNEGEEEEGETKLKKRKNGAMMSRQNSSTTFCTEEESNCADQDGGGEDSSSKEDDPSKALNLNGKTRASRGAATDPQSLYARKRRERINERLRILQNLVPNGTKVDISTMLEEAVHYVKFLQLQIKLLSSDDLWMYAPIAFNGMDIGLSSPR
B8: RHD6-LIKE4 (RSL4), luciferase-half fusion for LCI (protein, UniProt Q8LEG1 1-258)
chain: MDVFVDGELESLLGMFNFDQCSSSKEERPRDELLGLSSLYNGHLHQHQHHNNVLSSDHHAFLLPDMFPFGAMPGGNLPAMLDSWDQSHHLQETSSLKRKLLDVENLCKTNSNCDVTRQELAKSKKKQRVSSESNTVDESNTNWVDGQSLSNSSDDEKASVTSVKGKTRATKGTATDPQSLYARKRREKINERLKTLQNLVPNGTKVDISTMLEEAVHYVKFLQLQIKLLSSDDLWMYAPLAYNGLDMGFHHNLLSRLM

Assays:
[1] = biological target: AT-HOOK MOTIF NUCLEAR LOCALIZED 17 (AHL17), luciferase-half fusions for LCI (Arabidopsis thaliana) (UniProt Q9LTA2); assay: split reporter; luciferase complementation imaging (LCI, also printed LIC): X-nLUC and cLUC-Y co-infiltrated by Agrobacterium into N. benthamiana leaves; LUC activity detected 2 days after infiltration
[2] = biological target: T1, AT-HOOK MOTIF NUCLEAR LOCALIZED 28 (AHL28), luciferase-half fusions for LCI (Arabidopsis thaliana); assay: as above
[3] = biological target: myc-tagged HSP70-1 (HSP70-1-myc) (Arabidopsis thaliana) (UniProt P22953); assay: co-IP; RHD6-GFP, HSP70-1-myc and AHL17-FLAG co-expressed in N. benthamiana leaves; precipitated with anti-myc beads or anti-GFP beads; western blot with anti-GFP, anti-myc and anti-FLAG
[4] = biological target: T2, AHL28, YFP-half fusions for BiFC (Arabidopsis thaliana); assay: split reporter; BiFC: nYFP and cYFP fusions co-infiltrated into N. benthamiana leaves; YFP fluorescence examined 2 days after infiltration by confocal microscopy
[5] = biological target: AHL17, YFP-half fusion for BiFC (Arabidopsis thaliana) (UniProt Q9LTA2); assay: as above

Row | Binder | binding [1] | binding [2] | binding [3] | binding [4] | binding [5]
1 | B1 | binds | binds |  |  | 
2 | B2 |  |  | binds |  | 
3 | B3 | binds | binds |  |  | 
4 | B4 | no binding | no binding |  |  | 
5 | B5 |  |  |  | no binding | no binding
6 | B6 | no binding | no binding |  |  | 
7 | B7 | no binding | no binding |  |  | 
8 | B8 | no binding | no binding |  |  | 
